Assay results taken from PubChem BioAssay AID1159614 (National Center for Advancing Translational Sciences (NCATS), 2016).
Among all 45,000 compounds or so, about 65 (0.1%) were called active. Calls follow the shape of the dose curve; as a rule, active = well fitted activation curve with a large enough effect; inconclusive = small, poorly fitted or top-dose-only effect; inactive = no such curve, though single readings can be large or run the other way. The list shows a part of the results.

Molecular target: Galactocerebrosidase (Homo sapiens) (UniProt P54803)
Test: A Novel Cell-Based Assay to Identify Small Molecules for B -Galactocerebrosidase; also: 0% is about no effect; nearly all actives have a fitted effect of over 65% in size
Details: 145M-Twi-hGALC-G270D cells (Twitcher mouse brain line with human GALC G270D), HMU-beta-Gal fluorescence, 48 h; series mostly up to 57.5 µM; activation: at the top concentration
In short: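 Live 145M-Twi cells (Twitcher mouse brain-derived, GALC-null) stably expressing human GALC-G270D, with a wild-type GALC line, were compound-treated. Residual GALC activity was then read as fluorescence from 0.1 mM final HMU-β-gal at pH 5.2; higher signal means activation.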

UniProt P54803, sequence (P54803 whole entry, looked up): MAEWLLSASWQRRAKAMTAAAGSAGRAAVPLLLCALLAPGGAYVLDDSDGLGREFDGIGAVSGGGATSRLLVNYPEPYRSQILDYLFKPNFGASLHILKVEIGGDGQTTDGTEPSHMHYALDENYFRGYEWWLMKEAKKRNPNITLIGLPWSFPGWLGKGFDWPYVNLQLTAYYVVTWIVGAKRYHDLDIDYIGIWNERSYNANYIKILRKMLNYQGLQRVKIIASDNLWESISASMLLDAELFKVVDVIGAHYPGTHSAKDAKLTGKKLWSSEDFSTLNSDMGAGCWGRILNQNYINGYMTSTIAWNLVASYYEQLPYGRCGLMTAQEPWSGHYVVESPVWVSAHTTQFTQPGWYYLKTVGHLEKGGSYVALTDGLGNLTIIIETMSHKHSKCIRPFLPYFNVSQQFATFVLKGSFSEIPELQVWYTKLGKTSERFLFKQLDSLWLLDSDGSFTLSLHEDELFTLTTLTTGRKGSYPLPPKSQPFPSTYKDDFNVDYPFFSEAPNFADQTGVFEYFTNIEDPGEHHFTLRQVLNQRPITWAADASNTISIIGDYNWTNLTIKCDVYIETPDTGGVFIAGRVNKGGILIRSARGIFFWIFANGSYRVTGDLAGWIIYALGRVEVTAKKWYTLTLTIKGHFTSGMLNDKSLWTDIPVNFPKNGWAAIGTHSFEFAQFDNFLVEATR

activation, inactive:
CCOC(=O)c1c(C)oc2ncnc(Nc3ccc(OC)cc3OC)c12 -6.4%
CCOc1ccccc1CNC(=O)C1CCN(S(=O)(=O)c2ccc3[nH]c(=O)ccc3c2)CC1 -2.6%
CN1C(=O)Cc2cc(S(=O)(=O)NCCc3ccc(Cl)cc3)ccc21 1.33%
COc1ccc(-c2noc(CSc3nnc(C)n3-c3ccc(C)cc3)n2)cc1OC -5.07%
Cc1ccc(C(=O)N2CCc3cc(CNS(=O)(=O)c4cccs4)ccc32)cc1 -0.825%
COc1ccc(N2CCN(C(c3ccccc3)c3sc4nc(-c5ccco5)nn4c3O)CC2)cc1 (stereo not given) -22.2%
O=C(Nc1nc2c(s1)CCCCCC2)Nc1ccc(F)cc1F -15.6%
Cc1cccc(C2C=C(c3ccc(C)c(C)c3)Nc3nnnn32)c1 (stereo not given) -15%
Cc1cc(F)ccc1S(=O)(=O)Nc1ccc2oc3c(c2c1)CC(C)CC3 (stereo not given) -21.1%
Cc1nc2ccn(Cc3ccccc3)c(=O)c2cc1C(=O)N1CCN(c2ccccc2F)CC1 -11.8%
COc1cc(OC)cc(-c2cc3nc(C)c(CCC(=O)NCc4ccccc4)c(C)n3n2)c1 -12.6%
CCOc1ccccc1C(=O)NC1(C(F)(F)F)NC(=O)N(CCc2ccc(OC)c(OC)c2)C1=O (stereo not given) -1.53%
COc1ccccc1N1CCN(C(=O)c2cn(CC(C)C)c(=O)c3c2c2ccccc2n3C)CC1 -3.97%
O=C(Nc1ccc(O)c(-c2nc3ccccc3o2)c1)c1sc2ccccc2c1Cl -0.43%
O=C(CSCc1cnn(-c2ccccc2)c1-n1cccc1)NCc1ccc(Cl)cc1 -2.36%
O=C(Nc1nnc(S(=O)(=O)N2CCCc3ccccc32)s1)c1ccccc1Cl -5.72%
CC(C)c1ccc(NC(=O)c2ccc3c(c2)CCN3S(=O)(=O)c2ccccc2)cc1 -29.1%
COc1ccc(CCNc2nc(-c3ccc(Cl)cc3)cc(C(F)(F)F)n2)cc1OC -5.05%
CCOC(=O)c1c(C)[nH]c(C)c1S(=O)(=O)N1CCC(C(=O)N2CCN(c3cccc(C)c3C)CC2)CC1 -7.91%
COc1ccccc1-c1nc2c(c(SCc3ccc(F)cc3Cl)n1)Cc1c(CO)cnc(C)c1O2 -6.42%
O=C(Nc1ccc(F)cc1)c1ccc(Cn2nc(N3CCN(c4ccccc4)CC3)ccc2=O)o1 -11.7%
COC(=O)c1ccc(NC(=O)CCc2c(C)nn(-c3ccc(N4CCOCC4)nn3)c2C)cc1 -6.46%
COc1ccc(Cl)cc1NC(=O)Cc1coc2c(C)c(C)ccc12 -43.2%
CCc1ccc(NC(=O)c2sc3nc4c(cc3c2N)CN(CC)CC4)cc1 -6.64%
Cc1cc(C)c2c(=O)cc(C(=O)Nc3nc4ccc(F)cc4s3)oc2c1 -12.6%
CCC(CC)C(=O)Nc1c(C(=O)N2CCN(c3ccccc3)CC2)oc2ccccc12 -23%
Cc1ccc(C(=O)Oc2ccc(C(O)CNC(C)(C)C)cc2OC(=O)c2ccc(C)cc2)cc1 (stereo not given) -13.3%
CCc1cccc(NC(=O)Cn2c(=O)c(C(F)(F)F)nc3ccccc32)c1 -3.84%
Cc1ccc(CNS(=O)(=O)c2ccc(-c3cnc(C4CC4)o3)cc2)cc1 -5.65%
Cc1coc2cc3oc(=O)c(CC(=O)N4CCCCC4)c(C)c3cc12 -5.82%
Cc1cccc(CSc2nc3cc(C(=O)NC4CCCC4)ccc3c(=O)n2Cc2ccccc2)c1 -11.5%
Cc1ccc(-n2nc(C(C)(C)C)cc2NC(=O)Nc2ccc(OCCN3CCOCC3)c3ccccc23)cc1 -15.7%
Cc1cc(N(C)Cc2ccccc2)n2nc(-c3ccc(C(C)(C)C)cc3)nc2n1 3.04%
CCCCNC(=O)c1cccc(-n2cnc3cccnc32)c1C -2.69%
CC1CCCCN1C(=O)c1ccc2c(c1)N(Cc1cccc(Cl)c1)C(=O)c1ccccc1S2=O (stereo not given) -1.77%
CCC(NC(=O)Nc1cc(Cl)ccc1OC)c1c(-n2cccc2)sc2c1CCN(C)C2 (stereo not given) -3.9%
CCCCCn1c(=O)[nH]c2cc(C(=O)NCCN(C)CCCC)ccc2c1=O -11.4%
CC1CCN(c2nc3c(-c4cccc(Br)c4)nnn3c3ccccc23)CC1 4.32%
COc1ccc(OCCn2nnc3sc4c(c3c2=O)CCC(C(C)(C)C)C4)cc1 (stereo not given) -17.9%
CCOc1ccc(-c2c(C)nn3c(C)c(C(=O)NCc4ccc(Cl)cc4)cnc23)cc1OCC -6.71%
CCc1ccc(-n2nc3cc(C)c(NC(=O)c4ccccc4C)cc3n2)cc1 -10.1%
O=C(CSc1c2c(nc3ccc(Cl)cc13)CCCC2)NCc1ccccc1Cl 3.22%
COc1ccc(CCNC(=O)c2cc(=O)c3cc(C)cc(C)c3o2)cc1OC -24.3%
N=c1n(CCO)c2ccccc2n1Cc1ccccc1F 1.37%
COc1ccc(Br)c(C(=O)Nc2cc3c(cc2N2CCCC2)n(C)c(=O)c(=O)n3C)c1 -12.7%
CCC(Sc1nc2ccccc2c2nc(CCn3c(C)nc4ccccc43)nn12)C(=O)Nc1ccc(F)cc1 (stereo not given) -7.63%
Cc1ccc(-c2cc(C(=O)OCC(=O)c3ccccc3)c3cccc(Cl)c3n2)cc1 -9.85%
O=C(OCc1ccco1)c1ccc2c(c1)N(Cc1cccc(F)c1)C(=O)c1ccccc1S2 -10%
CCN1C(=O)c2ccccc2S(=O)c2ccc(C(=O)NCc3ccc(C)cc3)cc21 (stereo not given) -4.17%
COc1cc(NC(=O)C2CCN(S(=O)(=O)c3c(C)noc3/C=C/c3cccs3)CC2)cc(OC)c1 -8.64%
COc1ccc(S(=O)(=O)N(CC(=O)Nc2ccc(OC)cc2OC)c2ccc(Cl)cc2)cc1 -1.9%
Cc1ccc2c(c1)c(=O)c(C(=O)c1ccccc1)cn2Cc1ccccc1F -12.1%
COc1ccc(NC(=O)CC2C(=O)N(c3ccccc3)C(=O)N2CCC2=CCCCC2)cc1 (stereo not given) -10.8%
CCOc1cccc(C(=O)Nc2nnc(S(=O)(=O)N(C)c3ccc(C)cc3)s2)c1 -14.9%
CCC1CN(C(=O)Nc2ccccc2C(F)(F)F)c2ccccc2O1 (stereo not given) -11.4%
COc1ccc(/C=C(/C#N)c2nc(-c3cc4ccccc4oc3=O)cs2)cc1 -7.71%
Cc1cccc(N2CC(c3nc4ccc(C)cc4[nH]3)CC2=O)c1 (stereo not given) -6.23%
CCOc1ccccc1C1C(C(N)=O)=C(C)Nc2nc(-c3ccccc3Cl)nn21 (stereo not given) -10.7%
COc1ccc(-c2nc(SCC(=O)c3ccc(Br)cc3)n[nH]2)cc1 -15.3%
Cc1c(CNC2CCC(C)CC2)c(C(=O)O)c(C)n1Cc1ccccc1F (stereo not given) -13.3%
Cn1ccc2cc(S(=O)(=O)N3CCCC(C(=O)NCc4ccc(F)cc4)C3)ccc21 (stereo not given) -18.6%
C=CCSCC1Nc2cc(Cl)c(S(N)(=O)=O)cc2S(=O)(=O)N1 (stereo not given) -28.5%
CCOc1ccc(NC(=O)CC2C(=O)N(c3ccc(C)cc3)C(=O)N2C2CCCCC2)cc1 (stereo not given) -14.6%
Cc1cc(C)n(CCc2nc3c4ccccc4nc(SCc4ccc(Cl)cc4)n3n2)n1 -11.2%
O=C(NC1(C(F)(F)F)N=C(c2ccccc2)N(C2CCCCC2)C1=O)c1ccc(F)cc1 (stereo not given) -18.3%
O=C(CSc1nc(-c2ccc(F)cc2)nc2c1Cc1ccccc1O2)Nc1cccc(C(=O)O)c1 -10.4%
CCOc1ccccc1-c1noc(CCCC(=O)Nc2cccc(C(F)(F)F)c2)n1 -27.2%
CC(=O)Nc1ccc(NC(=O)c2cc3c(=O)n(Cc4cccnc4)ccc3nc2C)cc1 -25.2%
N#Cc1cccc(NC(=O)C2CCN(c3cnccn3)CC2)c1 0.737%
COC(=O)c1ccc(C2C=C(c3ccc(Cl)cc3)Nc3nc4ccccc4n32)cc1 (stereo not given) -9.8%
O=C(NCC(c1cccnc1)N1CCc2ccccc21)c1ccc(F)c(F)c1 (stereo not given) -22.3%
Cc1cc(C)c2oc(C(=O)Nc3c(C)n(C)n(-c4ccccc4)c3=O)cc(=O)c2c1 -15.4%
CC(=O)N1CCc2c(sc3c2c(=O)n(-c2ccccc2C)c(=O)n3CC(=O)c2ccccc2)C1 -4.86%
Cc1ccc(-n2nc3cc(C)c(NC(=O)COc4ccccc4)cc3n2)cc1 -16.4%
Cc1ccc(C(=O)NCC(=O)OCc2cc(=O)n3c(C)csc3n2)cc1 1.57%
Cc1cn(C)c(CC(=O)N2CCN(c3cccc(C(F)(F)F)c3)CC2)c1C(=O)O -8.43%
CCc1cc2c(cc3c(=O)n(CC(=O)NC4CCCCC4)nc(CC)n32)s1 -27%
CCOC(=O)CCN(c1ccccc1)S(=O)(=O)c1cc(-c2cc(C)no2)ccc1C 6.76%
Cc1ccc(-n2cc3c(c2-c2ccccc2Br)c(=O)n(C)c(=O)n3C)cc1N -22.1%
CC(C)n1cc2c(c1-c1ccccc1Cl)c(=O)n(C)c(=O)n2C -19.9%
Cc1ccc(C)c(NC(=O)Cn2c(=O)n(-c3ccccc3C)c(=O)c3c2c2cc(C)ccc2n3C)c1 -4.97%
Cc1ccc(C(C)C)c(OCC(=O)NCC2(N3CCOCC3)CCCCC2)c1 -15.1%
Cc1cccc(C(=O)Nc2cccc(OCc3cc(=O)n4cc(C)sc4n3)c2)c1 -12%
COc1ccccc1-c1nc2c(c(SCC(=O)Nc3ccccc3F)n1)Cc1c(CO)cnc(C)c1O2 -14.1%
COc1ccccc1N1CCN(CCCNC(=O)c2nnc(Cc3c(F)cccc3Cl)o2)CC1 -13.4%
CC(O)CNC(=O)C(=O)Nc1c2c(nn1-c1ccc(Cl)cc1)CSC2 (stereo not given) -13%
CCOc1ccc(CCNC(=O)CS(=O)(=O)Cc2nc(-c3cccc(Cl)c3)oc2C)cc1 11%
COc1ccc(NC(=O)C2CCCN(C(=O)c3cnn(-c4ccccc4)c3-n3cccc3)C2)cc1 (stereo not given) -0.555%
COc1ccc(-c2cc(-c3ccccc3)c(C#N)c(SCC(O)CS(=O)(=O)Cc3ccccc3)n2)cc1 (stereo not given) -6.55%
Cc1ccc2c(=O)cc(C(=O)N(Cc3ccccc3Cl)C3CCS(=O)(=O)C3)oc2c1 (stereo not given) -2.2%
CCN1CCN(CCCNC(=O)Cn2c(-c3cccs3)cc3ccccc32)CC1 -6.97%
Cc1ccc(NC(=O)Cn2c(=O)n(Cc3ccco3)c(=O)c3ccccc32)cc1 4.4%
CCOc1ccc(CNC(=O)c2cc3c(=O)n(C)c4ccccc4c3s2)cc1 0.0109%
O=C(c1ccc2c(c1)OCCO2)N(Cc1cccnc1)c1nc2ccc(F)cc2s1 -12%
O=c1[nH]c(SCc2ccc(F)cc2)nc2c1CCCC2 -8.18%
